Assay results: PubChem BioAssay AID588453 (National Center for Advancing Translational Sciences (NCATS), 2011)
Among all 390,000 compounds or so, about 4,000 (1%) were called active. The inconclusive results got no clear call from the source; some entries with a clear call stand among them for comparison. Calls come from the whole dose curve; as a rule, active = well fitted inhibition curve with a large enough effect; inconclusive = small, poorly fitted or top-dose-only effect; inactive = no such curve, though single readings can be large or run the other way. Where the call is inconclusive, the potency comes from a doubtful curve fit.

target: Thioredoxin reductase 1, cytoplasmic (Rattus norvegicus) (UniProt O89049); assay: qHTS Assay for Inhibitors of Mammalian Selenoprotein Thioredoxin Reductase 1 (TrxR1): qHTS; details: recombinant rTrxR1, NADPH fluorescence consumption, selenite substrate; series mostly up to 114 µM; activity change, negative = inhibition: at the top concentration; note: nearly all actives have a fitted effect of over 65% in size
In short: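 Rat TrxR1 (90 nM in the dispensed reagent) was pre-reduced with 400 uM NADPH for 5 min at room temperature, then incubated with compound for 15 min. After 400 uM selenite was added, NADPH fluorescence (Ex 340/Em 450 nm) was followed for 8 min.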
% is set by controls: 0 for no effect and ±100 for the full control effect; potency is the fitted concentration of half-maximal effect; tags give direction and shape of the fitted curve.

UniProt O89049, sequence (O89049 whole entry, looked up): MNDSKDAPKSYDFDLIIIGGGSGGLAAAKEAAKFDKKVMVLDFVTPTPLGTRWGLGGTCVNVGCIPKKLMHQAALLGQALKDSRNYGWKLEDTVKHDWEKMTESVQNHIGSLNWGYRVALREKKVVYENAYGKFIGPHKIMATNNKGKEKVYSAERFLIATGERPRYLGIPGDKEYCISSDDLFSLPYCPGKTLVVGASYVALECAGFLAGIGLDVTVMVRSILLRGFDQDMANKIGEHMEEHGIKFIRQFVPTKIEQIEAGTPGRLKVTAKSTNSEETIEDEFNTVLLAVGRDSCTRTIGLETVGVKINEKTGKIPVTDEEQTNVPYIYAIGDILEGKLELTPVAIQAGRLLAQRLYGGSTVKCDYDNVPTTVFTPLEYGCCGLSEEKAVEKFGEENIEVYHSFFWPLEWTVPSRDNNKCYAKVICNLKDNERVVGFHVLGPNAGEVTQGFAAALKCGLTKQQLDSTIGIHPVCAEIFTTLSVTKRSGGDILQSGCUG

Structure (SMILES)	activity change, negative = inhibition	Potency
Cc1ccc(Cl)cc1NS(=O)(=O)c1ccc(N2CCCCS2(=O)=O)cc1	inactive: 9.24% [at 57.1 µM]	–
CC(Oc1ccc2c(-c3ccccc3)cc(=O)oc2c1)C(=O)O (stereo not drawn)	inactive: -1.17%	–
COc1ccc(C(C)=O)cc1COC(=O)C1CCN(C(=O)c2ccc(Cl)cc2)CC1	–	inconclusive: 79.4 µM [inhibitor, partial curve]
COc1cc(-c2noc(C)c2C#CCO)cc(OC)c1OC	–	inconclusive: 50.1 µM [inhibitor, partial curve, poor fit]
CC(=O)c1cccc(NC(=O)CSc2ccc(-c3ccco3)nn2)c1	–	active: 11.2 µM
Clc1ccc2nc[nH]c2c1	–	inconclusive: 20 µM [inhibitor, single point]
COc1ccc(C2C=C(c3ccccc3)Nc3nc(NC(=O)/C=C/c4ccc(Cl)cc4)nn32)cc1 (stereo not drawn)	inactive: -1.19%	–
CCC1CCCCN1C(=O)c1cc(-c2ccc(Cl)c(Cl)c2)on1 (stereo not drawn)	inactive: 18.7%	–
Cc1[nH]n(-c2ccc([N+](=O)[O-])cc2)c(=O)c1C=NCCN1CCN(C(=O)c2ccccc2F)CC1	–	inconclusive: 50.1 µM [inhibitor, partial curve, poor fit]
C=CCN1C=C2C(=O)C(C)(OC(=O)c3cnc4ccccc4n3)C(=O)C=C2C=C1/C=C/COC (stereo not drawn)	–	inconclusive: 56.2 µM [inhibitor, partial curve]
Cc1ccc2cc(/C=N/NC(=O)[C@H]3C[C@@H]3c3ccccc3)c(Cl)nc2c1	–	inconclusive: 89.1 µM [inhibitor, single point]
O=C(N/N=C\C=C\c1ccco1)C1COc2ccccc2O1 (stereo not drawn)	–	inconclusive: 28.2 µM [inhibitor, single point]
O=C(/C=C/c1ccc(O)cc1)c1ccccc1	inactive: -12.7%	–
O=C(CN1C(=O)c2ccccc2C1=O)N1CCN(C2c3ccccc3-c3ccccc32)CC1	–	inconclusive: 89.1 µM [inhibitor, partial curve, poor fit]
COc1cc2c(cc1OC)CN(c1nc(CN3CCOCC3)nc3sc4c(c13)CCC(C)C4)CC2 (stereo not drawn)	–	inconclusive: 50.1 µM [inhibitor, partial curve]
CCC1Oc2ccc(C)cc2N(CC(=O)N(Cc2ccc(C)o2)C2CCCC2)C1=O (stereo not drawn)	–	active: 25.1 µM
COC(=O)c1sccc1NC(=O)Nc1ccc(Cl)c(Cl)c1	–	inconclusive: 39.8 µM [inhibitor, single point]
Cc1ccc(-c2nnc(Nc3ccccc3)o2)cc1	inactive: 16%	–
CCOc1ccc(Cl)cc1/C=C1/C(=O)ON=C1C	–	inconclusive: 22.4 µM [inhibitor, full curve]
CCc1sc(C(=O)Nc2ccc(OC)c(S(=O)(=O)N3CCOCC3)c2)cc1C	inactive: 20.3%	–
CSc1ccc(C2C(C(=O)c3ccco3)=C(O)C(=O)N2c2nnc(SC)s2)cc1 (stereo not drawn)	–	inconclusive: 56.2 µM [inhibitor, single point]
CCOc1ccc(NC(=O)CSc2ncn[nH]2)c([N+](=O)[O-])c1	inactive: -5.71%	–
CCOC(=O)C1=C(Cc2ccc(F)cc2)C(=O)c2ccccc2C1=O	–	active: 6.31 µM

Structure (SMILES)	activity change, negative = inhibition	Potency
COc1ccc(C(=O)NCC(c2ccc3c(c2)OCO3)N2CCOCC2)cc1OC (stereo not drawn)	inactive: 20.3% [at 57.1 µM]	–
Cc1ccc2nc(N(Cc3cccnc3)C(=O)CCOc3ccccc3)sc2c1	–	inconclusive: 17.8 µM [inhibitor, partial curve]
Cc1cc(C)c(NC(=O)OCCN2CCOCC2)c(C)c1	–	inconclusive: 39.8 µM [inhibitor, partial curve, poor fit]
COCc1ccc(C(=O)N2CCCCC2C(=O)Nc2ccc(-n3nc(C)cc3C)cc2)o1 (stereo not drawn)	–	inconclusive: 79.4 µM [inhibitor, single point]
O=C(CSc1nnc(-c2n[nH]c3ccccc23)n1-c1ccccc1)Nc1cccc(Cl)c1	inactive: 1.83%	–
Cc1ccc(-n2[nH]c(C)c(/C=N/Nc3ccc([N+](=O)[O-])cc3[N+](=O)[O-])c2=O)cc1	–	inconclusive: 70.8 µM [inhibitor, partial curve]
N#CC1=C2SCN(Cc3ccccc3)CN2C(=O)CC1c1ccccc1F (stereo not drawn)	–	inconclusive: 7.94 µM [inhibitor, partial curve, poor fit]
Cc1cc(=O)oc2c3c(ccc12)OCN(Cc1ccc(Cl)cc1)C3	–	active: 20 µM
CCOCCCNCc1cn(-c2ccc(F)cc2F)nc1-c1ccccc1C	–	inconclusive: 20 µM [inhibitor, single point]
C/C=C(\NNC(C)=O)c1ccc(O)cc1	–	inconclusive: 79.4 µM [inhibitor, single point]
CCOC(=O)C/C(C)=N/NC(=O)C1CC1(c1ccccc1)c1ccccc1 (stereo not drawn)	–	inconclusive: 79.4 µM [inhibitor, partial curve, poor fit]
CCC1CCCCN1C(=O)Cn1c(=O)n(CCCCCC(=O)NCc2ccccc2Cl)c(=O)c2sccc21 (stereo not drawn)	inactive: 0.678%	–
Cc1nnc(Sc2cc(NCCCO)c([N+](=O)[O-])c3nonc23)s1	–	inconclusive: 0.708 µM [inhibitor, full curve, poor fit]
Cc1ccnn1CCC(=O)N1CCCC(N2CCN(c3cccc(Cl)c3)CC2)C1 (stereo not drawn)	–	inconclusive: 4.47 µM [inhibitor, single point]
CCOC(=O)c1ccc(N=Cc2nc(-c3ccccc3)oc2OC(C)=O)cc1	–	active: 2 µM
CCCCCCN(C(=O)CCCN1C(=O)NC(c2ccc(-c3ccccc3)cc2)C(C(=O)OCc2ccccc2)=C1C)C(C)C(=O)NCCCC (stereo not drawn)	inactive: 25%	–
Fc1ccc(Nc2c(-c3ccco3)nc3ccccn23)cc1	–	inconclusive: 100 µM [inhibitor, single point]
COc1cccc(NC(=S)/C(=C(\[O-])c2ccc([N+](=O)[O-])cc2)[n+]2ccccc2)c1	–	inconclusive: 89.1 µM [inhibitor, single point]
Cn1c(N)c(C(=O)COC(=O)C2CCCC2)c(=O)n(C)c1=O	inactive: 9.86% [at 57.1 µM]	–
C=CC1=C(C(=O)O)N2C(=O)C(NC(=O)Cc3ccccc3)C2SC1 (stereo not drawn)	–	inconclusive: 44.7 µM [inhibitor, partial curve, poor fit]
COc1ccc(OCc2cc(C(=O)N3CCC(OC)CC3)no2)c2ccccc12	inactive: -15.9%	–
O=C1C(=O)N(Cc2ccco2)C(c2cccc(Cl)c2)/C1=C(\O)c1ccc2c(c1)OCCO2 (stereo not drawn)	–	inconclusive: 50.1 µM [inhibitor, partial curve]
CCc1ccc(NC2Nc3cc(C)nn3S2)cc1 (stereo not drawn)	–	inconclusive: 2.24 µM [inhibitor, full curve]

Structure (SMILES)	activity change, negative = inhibition	Potency
COC(=O)[C@]1(Cc2ccccc2)N[C@H](CN(C)C(C)=O)[C@@H]2C(=O)N(Cc3ccccc3)C(=O)[C@@H]21	inactive: -1.58%	–
O=S(=O)(CCNCc1ccco1)NC1CCCCC1	–	inconclusive: 70.8 µM [inhibitor, single point]
O=S(c1ccc2ccccc2c1)c1cnns1 (stereo not drawn)	–	inconclusive: 50.1 µM [inhibitor, partial curve, poor fit]
Cc1ccc2[nH]c3c(c2c1)CC/C(=C/c1ccccc1)C3=O	inactive: 8.72%	–
COC(=O)c1c(NC(=S)NNC(=O)c2ccc(Cl)s2)sc(C(=O)N(C)C)c1C	–	inconclusive: 79.4 µM [inhibitor, single point]
CCC(=O)Nc1cccc(NC(=S)NC(=O)c2ccccc2C)c1	–	inconclusive: 25.1 µM [inhibitor, partial curve]
CCOC(=O)c1cc(CN2CCOCC2)oc1-c1ccccc1	–	inconclusive: 20 µM [inhibitor, single point]
BrC(=C\c1ccccc1)/C=N/Nc1ccc2nncn2n1	–	active: 17.8 µM
CCC(=O)Nc1ccccc1N1CCN(c2ccc(F)cc2)CC1	–	inconclusive: 89.1 µM [inhibitor, partial curve, poor fit]
Cc1cccnc1CCNC(=O)c1ccc(OC2CCN(Cc3ccccn3)CC2)cc1	–	inconclusive: 70.8 µM [inhibitor, single point]
Cc1noc(/C=C/c2ccco2)c1S(=O)(=O)N1CCC(C(=O)N2CCc3ccccc3C2)CC1	–	active: 50.1 µM
CCCC(=O)NC(c1ccc(Cl)cc1)c1ccc2cccnc2c1O (stereo not drawn)	–	inconclusive: 89.1 µM [inhibitor, partial curve, poor fit]
Cc1ccc(Cl)cc1Nc1nc(-c2sc(NC(=O)C(C)(C)C)nc2C)cs1	inactive: 18.5% [at 57.1 µM]	–
Cc1cccc(C(=O)Nc2nnc(-c3ccc(C(C)(C)C)cc3)s2)c1	inactive: -7.64% [at 57.1 µM]	–
CCCCNS(=O)(=O)CCNCc1ccco1	–	inconclusive: 100 µM [inhibitor, single point]
CCC(c1nnnn1Cc1ccco1)N(Cc1cc2cc(OC)ccc2[nH]c1=O)C1CCCCC1 (stereo not drawn)	–	inconclusive: 50.1 µM [inhibitor, partial curve]
Cn1c2ccccc2c(=O)c2c(=O)n(Cc3ccco3)c(-c3ccc(F)cc3)nc21	–	inconclusive: 15.8 µM [inhibitor, single point]
O=C(OCC(=O)c1c[nH]c2ccccc12)C1=COCCO1	–	inconclusive: 79.4 µM [inhibitor, partial curve, poor fit]
COc1ccc(-c2nc(CN3CCN(C(=O)c4ccco4)CC3)c(C)o2)cc1OC	–	inconclusive: 79.4 µM [inhibitor, partial curve]
Cc1cccc(NC(=S)NC(=O)CCc2ccccc2)c1C	–	inconclusive: 2 µM [inhibitor, full curve]
N#CC1(C#N)C(c2ccccc2)OC23CCCCCC2C1(C#N)C(=N)O3 (stereo not drawn)	–	inconclusive: 56.2 µM [inhibitor, single point]
O=C(N/N=C/c1ccc(Br)s1)c1ccco1	–	inconclusive: 50.1 µM [inhibitor, partial curve]
